According to the RNAGym collection of RNA variant scans (doi:10.1101/gad.245936.114):
Variants at the floor of the assay are shown more often than the library holds them.

B1: tRNA (parent)
chain: CUCUCGGUAGCCAAGUUGGUUUAAGGCGCAAGACUUUAAUUUAUCACUACGAAAUCUUGAGAUCGGGCGUUCGACUCGCCCCCGGGAGAUUUUUUCCUCGAGCAA

Variants of: B1
Test: nonsense suppression (GFP-seq) (ratio to wild type); higher = more function; SUP4oc tRNA, yeast GFP reporter sort-seq
In short: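 Sorted GFP/RFP bins of yeast were each Illumina-sequenced with a phred ≥30 cutoff; the cells held a genome-integrated ochre-suppressor tRNA variant from a library with ~3% random mutations, a galactose-driven GFP ochre reporter, and RFP. Culture was in raffinose/galactose medium containing 80 mg/L adenine. Nonsense suppression, termed GFPSEQ, is the median GFP/RFP of the bins weighted by each variant's estimated cell share per bin, relative to the unmutated parent tRNA, for variants reaching ≥100 reads and ≥30 cells.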

Variant | nonsense suppression
CUCUGGGUAGCCAAUUUGGUUUAAGGCGCACGACUUUAAUUUAUCACUACGAAAUCUUGAGAUCGGGCGUUCGACUCGCCCCCGGGAGAUUUUUUCCUCGAGCAA | ≤ 0.026
CUCUGGGUAGCCAAGUUAGUUUAAGGCGCAAGACUUUAAUUUAUCACUACGAAAUCUUGAGAUCGGGCGUUCGACUCGCCCCCGGGAGAUUUUUUCCUCGAGCAA | ≤ 0.026
CUCUGGGUAGCCAAGUUCGUUUAAGGCGCAAGACUUUAAUUUAUCACUACGAAAUCUUGGGUUCGGGCCUUCGACUCGCCCCCGGGAGAUUUUUUCCUCGAGCAA | ≤ 0.026
CUCUGGGUAGCCAAGUUCGUUUAAGUCGCACGACUUUAAUUUAUCACUACGAAAUAUUGAGACCGGGCGUUCGACUCGCCCCCGGGAGAUUUUUUCCUCGAGCAA | ≤ 0.026
CUCUGGGUAGCCAAGUUGAUUUAAGGCGCAAGACUUUAAUUUAUCACUACGAAAUCUUGAGUUCGGGCGUUCGACUCGCCCCCGGGAGAUUUUUUCCUCGAGCAA | ≤ 0.026
CUCUGGGUAGCCAAGUUGCUUUAAGGCGCAAGACUUUAAUUUAUCACUACGAAAUCUUGAGAUCGGGCGUUCGACUCGCCCCCGGGUGAUUUUUUCCUCGAGCAA | ≤ 0.026
CUCUGGGUAGCCAAGUUGCUUUAAGGCGCAAGACUUUAAUUUAUCACUACGAAAUCUUGAGAUCGGGCGUUCGACUCGCCCCCGGGAGUUUUUUUCCUCGAGCAA | ≤ 0.026
CUCUGGGUAGCCAAGUUGUUUUAAGGCGCAAGACUUUAAUUUAUCACUACGAAAUCCUGAGAUCGGGCGUUCGACUCGCCCCCGGGAGAUUUUUUCCUCGAGCAA | ≤ 0.026
CUCUGGGUAGCCAAGUUGGUUUAACGCUCAAGACUUUAAUUUAUCACUACGAAAUCUAGAGAUCGGGCGUUCGACUCGCCCCCGGGAGAUUUUUUCCUCGAGCAA | ≤ 0.026
CUCUGGGUAGCCAAGUUGGUUUAACGCGCAAGACUUUAAUUUAUCACUACGAAAACUUGAGAUCGGGCGUUCGACUCGCCCCCGGGAGAUUUUUUCCUCGAGCAA | ≤ 0.026
CUCUGGGUAGCCAAGUUGGUUUAAUGCGCAAGGCUUUAAUUUAUCACUACGAAAUCUUGAUAUCGGGCUUUCGACUCGCCCCCGGGAGAUUUUUUCCUCGAGCAA | ≤ 0.026
CUCUGGGUAGCCAAGUUGGUUUAAGGCGCAAGACUUUAAUUUAUCACUACGAAAUCUUAAGCUCGGGCGUUCGACUCGCCCCCGGGAGAUUUUUUCCUCGAGCAA | ≤ 0.026
CUCUGGGUAGCCAAGUUGGUUUAAGGCGCAAGACUUUAAUUUAUCACUACGAAAUCUUGAAAUCGGGCGUUCGACUCGCCGCCGGGAGAUUUUUUCCUCGAGCAA | ≤ 0.026
CUCUGGGUAGCCAAGUUGGUUUAAGGCGCAAGACUUUAAUUUAUCACUACGAAAUCUUGAGAUCGCGCGUUCGACUCGCCCCCGGGAGAUUUUUUCCUCGAGCAA | ≤ 0.026
CUCUGGGUAGCCAAGUUGGUUUAAGGCGCAAGACUUUAAUUUAUCACUACGAAAUCUUGAGAUCGGACGUUCGACUCGCCCCCGGGAGAUUUUUUCCUCGAGCAA | ≤ 0.026
CUCUGGGUAGCCAAGUUGGUUUAAGGCGCAAGACUUUAAUUUAUCACUACGAAAUCUUGAGAUCGGCCGCACGACUCGCCCCCGGGAGAUUUUUUCCUCGAGCAA | ≤ 0.026
CUCUGGGUAGCCAAGUUGGUUUAAGGCGCAAGACUUUAAUUUAUCACUACGAAAUCUUGAGAUCGGGCAUUCGACUCGCCCCCGGGAGAUUUUUUCCUCGAGCAA | ≤ 0.026
CUCUGGGUAGCCAAGUUGGUUUAAGGCGCAAGACUUUAAUUUAUCACUACGAAAUCUUGAGAUCGGGCCUUAGACUGGCCCCCGGGAGAUUUUUUCCUCGAGCAA | ≤ 0.026
CUCUGGGUAGCCAAGUUGGUUUAAGGCGCAAGACUUUAAUUUAUCACUACGAAAUCUUGAGAUCGGGCGUUCUACUCGCCCCCGGGAGCUUUUUUCCUCGAGCAA | ≤ 0.026
CUCUGGGUAGCCAAGUUGGUUUAAGGCGCAAGACUUUAAUUUAUCACUACGAAAUCUUGAGAUCGGGCGUUCGACUCUCCCCCGGGAGAUUUUUUCCUCGAGCAA | 0.0283
CUCUGGGUAGCCAAGUUGGUUUAAGGCGCAAGACUUUAAUUUAUCACUACGAAAUCUUGAGAUCGGGCGUUCGACUCUCCCACGGGAGAUUUUUUCCUCGAGCAA | ≤ 0.026
CUCUGGGUAGCCAAGUUGGUUUAAGGCGCAAGACUUUAAUUUAUCACUACGAAAUCUUGAGAUCGGGCGUUCGACUCGCCCCCGGCAGAUUUUUUCCUCGAGCAA | ≤ 0.026
CUCUGGGCAGCCAAGUUGGUUUAAGGCGCAAGACUUUAAUUUAUCACUACGAAAUCUUGAGAUCGGGCGUUCGACUCGCCCCCGGGAGAUUUUUUCCUCGAGCAA | ≤ 0.026
CUCUGGGCUGCCAAGUCGGUUUAAGGCGCAAGACUUUAAUUUAUCACUACGAAAUCGUGAGAUCGGGCGUUCGACUCGUCCCCGGGAGAUUUUUUCCUCGAGCAA | ≤ 0.026
CUCUGGGCAGCCACGUUGGUUUAAGGCGCAAGACUUUAAUUUAUCACUACGAAAUCUUGAGAUCGGGCGUUUGACUCGCCCCCGGGAGAUUUUUUCCUCGAGCAA | ≤ 0.026
CUCUGGGCAGCCAAGUUGGUUUAAGGCGCAAGACUUUAAUUUAUCACUACGAAAUCUUGAGAUCGGGCGUUCGACUCGCCCCCGGGAAAUUUUUUCCUCGAGCAA | ≤ 0.026
CUCUGGGGAGCCAAGUUGGUUUAAGGGGCAAGACUUUAAUUUAUCACUACGAAAUCUUGAGAUCGGGCGUUCGACCCGCCCCCGGGAGAUUUUUUCCUCGAGCAA | ≤ 0.026
